Over roughly 33,000 sequences, “E-score (-0.5 to 0.5)” has its median near -0.053; the highest 2% begin near 0.37. The list shows a part of the results.
Target: Hap1 (UniProt P0CE41)
Assay: PBM E-score (8-mer binding enrichment) (E-score (-0.5 to 0.5)); higher = stronger / more preferred TF binding; most listed sequences are background and not binding sites
Conditions: protein concentration: 200 nM; construct: GST-DNA-binding domain
Procedure, shortened: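 Detection of bound protein used fluorescent anti-GST, with scans normalised by masliner. The proteins were GST-tagged yeast transcription factors applied at about 100-200 nM to universal all-10-mer Agilent arrays made double-stranded by primer extension. Each ungapped eight-base word, pooled with its reverse complement, was scored with an E-score from the Universal PBM Analysis Suite.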

Chain of UniProt P0CE41 (P0CE41 whole entry): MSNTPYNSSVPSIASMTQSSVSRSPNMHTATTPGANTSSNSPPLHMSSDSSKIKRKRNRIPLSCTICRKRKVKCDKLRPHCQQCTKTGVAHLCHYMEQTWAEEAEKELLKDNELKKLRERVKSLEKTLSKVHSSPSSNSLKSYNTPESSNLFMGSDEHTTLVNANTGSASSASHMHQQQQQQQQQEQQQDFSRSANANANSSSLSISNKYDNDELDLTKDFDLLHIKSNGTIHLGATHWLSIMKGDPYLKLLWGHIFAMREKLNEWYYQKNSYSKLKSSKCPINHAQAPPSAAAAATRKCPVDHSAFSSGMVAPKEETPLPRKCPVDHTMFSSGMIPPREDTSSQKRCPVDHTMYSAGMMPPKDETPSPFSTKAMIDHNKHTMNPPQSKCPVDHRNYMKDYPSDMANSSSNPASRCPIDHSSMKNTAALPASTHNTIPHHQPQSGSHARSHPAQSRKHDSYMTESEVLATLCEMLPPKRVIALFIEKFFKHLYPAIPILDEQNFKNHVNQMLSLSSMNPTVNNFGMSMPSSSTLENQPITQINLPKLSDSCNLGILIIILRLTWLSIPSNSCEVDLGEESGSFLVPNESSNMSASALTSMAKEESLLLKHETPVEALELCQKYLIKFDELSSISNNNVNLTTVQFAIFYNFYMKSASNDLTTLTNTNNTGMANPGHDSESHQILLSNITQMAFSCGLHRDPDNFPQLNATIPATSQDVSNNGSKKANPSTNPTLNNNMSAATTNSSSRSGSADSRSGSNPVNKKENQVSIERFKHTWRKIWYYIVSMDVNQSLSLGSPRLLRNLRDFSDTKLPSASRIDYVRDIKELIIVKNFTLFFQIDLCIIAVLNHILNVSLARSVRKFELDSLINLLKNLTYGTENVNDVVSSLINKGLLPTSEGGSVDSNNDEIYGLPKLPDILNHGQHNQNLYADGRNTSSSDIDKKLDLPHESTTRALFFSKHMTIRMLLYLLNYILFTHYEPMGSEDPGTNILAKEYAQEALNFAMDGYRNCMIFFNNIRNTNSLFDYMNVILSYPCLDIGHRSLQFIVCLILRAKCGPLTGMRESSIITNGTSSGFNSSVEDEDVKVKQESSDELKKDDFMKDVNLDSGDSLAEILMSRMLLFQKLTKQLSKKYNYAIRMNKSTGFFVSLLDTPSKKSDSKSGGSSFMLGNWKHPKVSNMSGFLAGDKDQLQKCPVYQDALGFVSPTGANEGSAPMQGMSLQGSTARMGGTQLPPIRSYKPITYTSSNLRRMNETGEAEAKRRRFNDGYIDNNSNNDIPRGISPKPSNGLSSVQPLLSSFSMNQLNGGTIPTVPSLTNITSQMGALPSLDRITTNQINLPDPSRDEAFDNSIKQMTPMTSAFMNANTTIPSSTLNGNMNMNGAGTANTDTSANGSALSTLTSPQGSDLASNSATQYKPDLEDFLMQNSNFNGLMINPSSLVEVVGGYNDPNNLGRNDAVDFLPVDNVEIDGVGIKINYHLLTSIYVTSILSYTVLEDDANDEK

Sequence | PBM E-score
ACGGGGGG | -0.129
AGCCTCAC | -0.289
CCGAATGA | 0.268
CGGCGCAC | 0.259
ATGCGCAT | 0.023
CGATGAGC | 0.0619
AATAGTAC | -0.0423
ATCGGGCG | 0.36
CGTTTGAA | -0.061
CGTACGAG | 0.0155
GCGTGAAC | -0.0798
AAGGTGGC | -0.0647
CTATGAAG | -0.0908
ATACGTTC | -0.109
CAAATCGA | -0.291
GGTGCTTA | -0.0954
ACTCTATC | 0.00027
GACGCCGC | 0.129
ACCCGGCA | 0.226
CAACAAAG | -0.162
CCGCAATA | 0.25
ACAGTACG | 0.0244
GATACGAA | 0.0104
AACTCCTA | -0.0287
AGATATTG | 0.0929

Sequence | PBM E-score
GAGGACTC | -0.255
CCGTTTGC | 0.146
CAAGGCAC | -0.215
GTAGTTCA | -0.0229
CCCCGGGC | 0.36
CTGTGGAC | -0.251
TATAAGCA | -0.149
GTACCTGA | -0.173
AAGCACTG | -0.191
CGGCCATC | 0.203
ACGAATCA | -0.0743
AATATGCT | -0.0232
CAATCCTC | -0.201
AGTGGGGG | -0.115
AGAAGTTG | -0.274
ATGGAGCC | -0.2
TAATGTGA | -0.0906
CACCGGCG | 0.378
AACCTGAT | -0.183
AATACTGT | -0.107
CCAGCTTA | -0.0626
AATATAAG | 0.0718
GGCAGAGA | 0.0377
TGACGCAA | -0.15
AACTGCAT | -0.128

Sequence | PBM E-score
ATGTCCAG | -0.0469
AGAGATGC | -0.0947
ATCCGGAT | 0.414
ATCCGGTA | 0.357
AGAATTTC | -0.0624
ACCGTACG | -0.072
GGATCGAC | 0.17
ATTTGAAA | -0.0416
ACAACCCT | -0.155
ACATCAAA | 0.0314
CCAAAGGA | -0.228
CAGTCCAC | -0.272
CCAGGTAG | -0.121
ATCAGGAT | 0.00952
CTTCAAAG | -0.142
ATGTACAG | -0.0525
CAATTCGA | -0.29
GCTTATCC | 0.163
CGACGTAG | -0.0488
ACTAAAGA | -0.168
CAGTTTTA | -0.17
ACCCTAGA | -0.219
GGACCGCA | 0.186
ACTCAACA | -0.159
CGTGAGGA | -0.0956

Sequence | PBM E-score
AGACGCAG | -0.0687
CTTACCGC | 0.233
CTACCAAC | -0.274
AGTTACCC | 0.121
GCCAATGA | -0.242
GACGCTGC | -0.138
GAACGTTC | -0.0378
GAGCGTAC | -0.188
AGCGATTA | 0.217
ATTGCCAC | -0.195
AGCCGAAG | 0.227
ATCCATGA | -0.134
CAGGACCA | -0.0254
CCGTGGCC | 0.198
CTGAAAAG | 0.0193
CTGAGCAA | -0.266
CCTTGCAC | -0.128
CAGATCTC | -0.106
AGGCTCCC | -0.0528
ACCAAAAA | 0.0683
AGCACACC | -0.0307
AACCAAAC | -0.118
ATTTAGGC | -0.129
GACGTCTC | -0.14
GAGTGAAA | -0.0897

Sequence | PBM E-score
TCCAACCA | -0.125
ATCTAGGG | -0.305
ATCGTGCC | 0.0652
CGTAGTTC | 0.016
GGTTAAAC | 0.145
GCCGAGGC | 0.341
ATTTGGGC | -0.144
CGAGCACG | 0.153
AGCGAGAT | 0.15
ATCGCTTC | -0.0291
CTTAAGGC | 0.00611
GCAAACCA | -0.133
CCTACAGA | -0.294
ATCCTAGG | -0.143
ACCCCGGT | 0.366
CTGGAGCC | 0.00891
AATGGGGT | 0.018
AACCAAGG | -0.259
GCCTCAAA | 0.0701
AAAGGCGT | -0.14
CTGCAGGC | -0.137
GCTAAACA | -0.131
CTATGCCA | -0.308
GGTTATAA | 0.244
CAACCACG | -0.156

Sequence | PBM E-score
CGAGGATA | 0.0703
ATCGTGGA | -0.0642
GAAGCGAC | -0.0556
AAGCCTAT | -0.101
CATGCTCA | -0.154
AGCCTTCG | -0.0886
CATGCCTC | -0.0568
GTAGCTAA | 0.045
CAGGCAGA | -0.18
CTAGCGGC | 0.0447
GCCGCGTA | 0.0919
AGTAGGCC | 6e-05
AACTGGTC | 0.0858
AGAGGGTG | -0.122
ACCAGCTA | -0.145
ATTATCCC | 0.0666
ATGCGCAA | 0.00433
CGTGAAAG | -0.077
ACTGCCCA | -0.0432
CTAAGTGC | -0.0465
CCATAGGG | -0.122
AGATGATC | -0.00964
GTCTGCGA | -0.259
AGTCGTCG | -0.132
TGCAAGCA | -0.091

Sequence | PBM E-score
CGTCATTC | 0.0302
CATTTCAG | -0.268
GCCGCAGA | 0.184
GCTCGCCA | -0.0148
ACTGGTAA | -0.127
GCTCCCAA | -0.226
AAACGTGA | -0.249
AGCAGTTG | -0.0263
AATGCTTG | -0.14
TTGCTAAA | -0.0806
GTCCGCCA | 0.166
GCAGATGC | -0.119
TAACAAAA | -0.123
AAGCCAAT | -0.0333
CACAGGCG | -0.132
TCGTTGCA | -0.218
GGCCACAC | 0.112
ACATTGTA | -0.159
CTCGATTA | 0.0285
CGGGCGTC | 0.296
CGGAGAGC | 0.216
AGCTAAAT | -0.0923
GAAAACTA | 0.117
ATATGGCC | 0.157
AGAGTTGC | 0.0723

Sequence | PBM E-score
GGAAACAC | 0.186
ACGTGGCT | -0.17
GCAAGGCA | -0.163
AACACACG | -0.176
TGCACCAA | -0.395
AGGCTGCC | -0.154
TATGTTCA | -0.114
CATACACC | 0.0763
AACGTTGA | 0.0612
CAAGGGTA | -0.149
CGATTGTA | 0.145
ATTGCCTC | -0.0685
CCTATTAC | -0.148
CGCGATCA | 0.0619
CTCTCCAC | -0.241
ACGTTTCT | -0.242
GCGAATGA | 0.117
AATCCAAC | -0.164
CACCTCTG | -0.231
ACGACCCT | 0.0604
AGGTGGTA | 0.0654
ACTTTCTG | -0.0792
CGACGAAC | 0.176
CGCTTATA | 0.234
CGTCTTTC | -0.117

Sequence | PBM E-score
AAGCAAAG | -0.0931
AGATGCCC | -0.12
CTGTGTCA | -0.0957
GCAGTAGA | -0.3
CACTCCAC | -0.268
AGACTCCT | -0.212
ATCTAGGC | -0.266
TCACGAAA | -0.114
ACGCTTCG | 0.122
CGCCGGCC | 0.396
ACCGCGGC | 0.259
ACTACCGC | 0.0612
CAACCTGC | 0.0857
AAGGCTCG | -0.155
CCCTTCGG | 0.33
AGACTCCC | -0.237
TGCCTCAA | -0.0297
GCACTGGA | -0.275
GATCGCTA | -0.0446
AAAGTAGA | -0.235
CCTGCTCG | -0.0416
CTCGACGA | -0.328
CTCAGGGA | -0.239
GCCAATCC | 0.189
ATGCGGCA | 0.0207

Sequence | PBM E-score
TATGATAA | -0.0526
AAACGCAT | -0.304
TCGGGAAA | 0.296
GTCTAATA | -0.0822
ATAATCAA | 0.131
CCATCCGA | 0.226
ATTTGACA | -0.128
GCAATTTA | -0.00427
AGAGTGCC | -0.173
CGGCGGAG | 0.387
CTAAGGGC | -0.143
TATTGGAA | -0.295
ACTTTACA | -0.0622
AGGCTCGG | 0.23
ATTGCCGG | 0.368
CAGCGCAC | -0.112
CGCTCTAC | -0.24
CGGATAAA | 0.381
CCCGACTA | 0.259
GCAGGGGC | -0.239
AGAAACCG | 0.245
GTCTGATA | -0.252
ACCTCAAT | -0.25
TAATTGGA | -0.0733
AAGTGATA | -0.166

Sequence | PBM E-score
AAGTTTCG | 0.108
AGTACTTG | -0.193
CGAATATA | 0.175
CGATCAGA | -0.202
CACGGAGA | 0.365
AACATGTT | -0.112
CGGGCACA | 0.119
GCCGATAA | 0.449
CTCCAGGA | -0.152
CGACCGCC | 0.0587
TAAAATCA | -0.0975
ACGGCGGG | 0.239
CGGGGCGC | 0.26
GGAGCAAA | 0.0477
CAAGCCTC | 0.00557
TTCAGAAA | -0.227
AACAGGCC | -0.0916
ATGTAATG | 0.0908
CCAAACCC | 0.0606
GTTTCCAA | -0.238
AGTCCCTA | -0.145
GGGTCAAA | 0.0274
ATGCGCAG | -0.0423
ATAGGATA | -0.00923
ACGTATAG | -0.0719

Sequence | PBM E-score
AACTTACC | 0.0748
GACTAAAA | 0.126
CTAACAAC | -0.182
ACGGATCA | 0.191
CCGGTATA | 0.425
AAATTCTA | -0.166
GCTTTGCC | -0.0963
AGCGGCGA | 0.247
AGTCAATA | -0.119
GCTTCCAA | -0.19
AAGGTTGT | -0.227
CCCGCACA | 0.202
TTAACTAA | 0.132
AACCTGGG | -0.199
GCAAAGTA | -0.0487
TCCCCACA | -0.303
AAAGCTTG | -0.272
GGGTTCTA | -0.091
AAAAGCCC | 0.138
AGTGAGGA | -0.338
CCTTACCC | -0.0817
CTTCTATA | -0.226
CATACGAG | -0.141
AATACCCT | -0.0844
GCGCAGGA | -0.179

Sequence | PBM E-score
TCAGCTCA | 0.044
CACTGACA | -0.233
CTGTTCAC | -0.257
CATCAATG | -0.178
CTCCGGTA | 0.439
AAAGTCTG | -0.291
ACACCTGA | -0.135
ACAGGCAG | -0.205
GTTAGCGA | 0.0395
AAGGAATC | -0.126
ATTACCCG | 0.214
ATGCTTCC | 0.00659
ACACGGCA | -0.064
CTCCGCTC | 0.172
CCGGTGGC | 0.286
AAGACGGT | -0.213
GCCTTCTA | -0.231
AGCCTCAA | -0.0717
ACCTTATC | 0.139
AACTTCGT | -0.111
CCCACCCG | 0.251
GTTTTTGA | -0.0624
ATGTACTC | -0.162
ACGGCATC | 0.0908
ACCCAATG | -0.191

Sequence | PBM E-score
GTTGTGCA | -0.196
TCTTCACA | -0.146
CGCACAAC | -0.225
ATCTCCGA | 0.486
ATGAAGCC | 0.136
CACCTAGC | -0.0838
GTGATATA | -0.0427
ACTGAGTC | -0.0716
GGCCGCGA | 0.0621
AGGAATTG | -0.193
ATCCCGGG | 0.376
CCGAGTAG | 0.26
CAGCTGAA | -0.292
GATGCTGA | -0.201
GACGCTAC | 0.00346
ACGGAAAG | 0.232
CTTACCAA | -0.171
CTATACCC | 0.204
TGTCACAA | -0.177
